The campaign covered roughly 200,000 compounds. About 4,500 (2.2%) were called active. Inconclusive results, whose numbers are uncertain, are shown with a selection of clear calls. Calls follow the shape of the dose curve; as a rule, active = well fitted inhibition curve with a large enough effect; inconclusive = small, poorly fitted or top-dose-only effect, or effect the other way; inactive = flat fitted curve, though single readings scatter. Potencies beside an inconclusive call are fits to weak or partial responses and may not hold up.
Each molecule was assayed against Cruzipain (Trypanosoma cruzi) (UniProt P25779) (assay: qHTS Assay for Promiscuous and Specific Inhibitors of Cruzain (without detergent)). Conditions: purified cruzain, Z-FR-AMC fluorescence, no detergent.
UniProt P25779, sequence (P25779 whole entry, looked up): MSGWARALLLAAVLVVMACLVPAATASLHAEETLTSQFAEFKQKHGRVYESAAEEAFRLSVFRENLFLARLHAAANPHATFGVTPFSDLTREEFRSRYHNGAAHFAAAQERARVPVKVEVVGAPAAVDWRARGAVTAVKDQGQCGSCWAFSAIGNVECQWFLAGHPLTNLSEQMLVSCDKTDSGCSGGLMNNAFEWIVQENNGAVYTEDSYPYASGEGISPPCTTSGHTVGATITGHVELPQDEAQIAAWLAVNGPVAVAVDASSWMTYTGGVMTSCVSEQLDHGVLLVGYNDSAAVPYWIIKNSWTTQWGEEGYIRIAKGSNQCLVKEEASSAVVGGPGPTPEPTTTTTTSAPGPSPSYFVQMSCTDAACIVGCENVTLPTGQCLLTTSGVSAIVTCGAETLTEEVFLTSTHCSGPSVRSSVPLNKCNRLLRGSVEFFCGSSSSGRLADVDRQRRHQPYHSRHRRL
Procedure, shortened: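 Detergent-free condition (0.00005% Triton X-100) in acetate buffer pH 5.5 with DTT. 1.5 nM enzyme and compound were pre-mixed 15 min, then 2 uM Z-FR-AMC substrate added; reaction progress from fluorescence change between first and third reads (60 s).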
For `CCC(=O)OC1CCC2C3CCc4cc(O)ccc4C3CC[C@]12C` (stereo partly specified), the max response, negative = inhibition was inactive: -0.838%.
In the case of `O=[N+]([O-])c1cccc(/C=C/c2nc(C=Nc3ccc4ccccc4c3)c(O)o2)c1`, the Potency is reported as inconclusive: 12.6 µM [inhibitor, single point].
With `Cc1[nH]n(-c2ccccc2)c(=O)c1C(c1cc(Cl)ccc1O)c1c(C)[nH]n(-c2ccccc2)c1=O` the Potency was inconclusive: 39.8 µM [activator, single point].
`COc1cc(/C=C2\OC(=O)c3c(OC)cccc32)ccc1O` was tested, and the Potency was inconclusive: 39.8 µM [activator, single point].
With `CC1CCc2sc(NC(=S)NC(=O)c3ccccc3)c(C#N)c2C1` (stereo unspecified) the Potency was active: 25.1 µM.
`CCOC(=O)c1ccc(NC2c3ncccc3C(=O)N2Cc2ccc(F)cc2)cc1` (stereo unspecified) was tested, and the Potency was inconclusive: 39.8 µM [activator, single point].
In the case of `Cc1ccc2nc(NC(=O)C3CCN(S(=O)(=O)c4cccc5nsnc45)CC3)sc2c1`, the Potency is reported as inconclusive: 39.8 µM [inhibitor, single point].
`CCCCNC(=O)c1cn(-c2ccc(OCC)cc2)c(=O)c2cc(OC)c(OC)cc12` was tested, and the Potency was inconclusive: 39.8 µM [activator, single point].
`CC1CCN(C(=O)Cn2c(=O)n(CCCCCC(=O)NCc3ccccc3Cl)c(=O)c3sccc32)CC1` was tested, and the max response, negative = inhibition was inactive: -13%.
In the case of `COc1cccc(-n2cc(C(=O)Nc3cccc(C(F)(F)F)c3)c3ccccc3c2=O)c1`, the max response, negative = inhibition is reported as inactive: -2.59%.
For `Cc1c(Cc2ccc3c(c2)OCO3)sc(NC(=O)c2ccc3ccccc3c2)c1C(N)=O`, the Potency was active: 10 µM.
For `CCN(CC)S(=O)(=O)c1ccc2c(c1)N(CC(=O)N1CCN(c3cccc(Cl)c3)CC1)C(=O)CO2`, the Potency was inconclusive: 39.8 µM [activator, single point].
For `CN(C)C1(CNC(=O)COc2ccc([N+](=O)[O-])cc2)CCCCC1`, the max response, negative = inhibition was inactive: -6.27%.
For `Cc1cccn2c(=O)c3cc(C(=O)NCc4cccnc4)c(=N)n(C(C)C)c3nc12`, the Potency was inconclusive: 31.6 µM [inhibitor, single point].
For `Cc1ccc2nc(NC(=O)C3CCN(S(=O)(=O)c4ccc5c(c4)oc(=O)n5C)CC3)sc2c1`, the Potency was inconclusive: 15.8 µM [inhibitor, single point].
For `CCn1c(SCc2ccccc2C)nc(=O)c2c(C(=O)OC)cc(C3CC3)nc21`, the max response, negative = inhibition was inactive: -22.6%.
For `O=C(O)c1ccccc1C(=O)N1CCN(c2cccc(Cl)c2)CC1`, the max response, negative = inhibition was inactive: -20.3%.
`O=C(Nc1ccccc1-c1nnc(SCc2ccccc2)o1)c1ccccc1` was tested, and the Potency was inconclusive: 39.8 µM [inhibitor, single point].
`Cc1ccc(-c2cc(C(=O)N3CCCc4ccccc43)c3ccccc3n2)cc1` was tested, and the Potency was active: 31.6 µM.
With `COc1cc(CNc2ccc3[nH]c(=O)[nH]c3c2)cc(Cl)c1OCC(=O)NC(C)(C)C` the max response, negative = inhibition was inactive: -6.52%.
`Cc1ccc(-n2c(C)cc(C3=NNC(=NC4CC4)SC3)c2C)cc1C` was tested, and the max response, negative = inhibition was inactive: -22.8%.
`COc1ccccc1N1CCN(C(=O)c2cc(N3C(=O)C4C5CCC(C5)C4C3=O)ccc2Cl)CC1` (stereo unspecified) was tested, and the Potency was inconclusive: 31.6 µM [activator, single point].
With `CCn1c(COc2ccccc2C)nnc1SCC(=O)N1CCC(C)CC1` the Potency was inconclusive: 25.1 µM [activator, single point].
With `Cc1ccc(-c2cnc(NC(=O)c3cccc(Br)c3)s2)c(C)c1` the Potency was inconclusive: 39.8 µM [inhibitor, single point].
For `O=C(NC(Nc1ncc(S(=O)(=O)c2ccc([N+](=O)[O-])cc2)s1)(C(F)(F)F)C(F)(F)F)c1ccc(Cl)cc1`, the max response, negative = inhibition was inactive: 3.26%.
`O=C(CCN1CCCCCC1)c1ccccc1` was tested, and the Potency was inconclusive: 15.8 µM [inhibitor, partial curve, poor fit].
`COc1ccc(C(=O)Nc2cccc(-c3cn4ccsc4n3)c2)c(OC)c1` was tested, and the Potency was inconclusive: 39.8 µM [activator, single point].
In the case of `Cc1cccc(C)c1OCc1nnc(SCC(=O)Nc2nccs2)o1`, the Potency is reported as inconclusive: 39.8 µM [inhibitor, single point].
For `COc1ccc(/C=N/c2c(-c3ccc(OC)cc3)nc3n2CCS3)cc1`, the Potency was inconclusive: 39.8 µM [activator, single point].
`C/C(=N\NC(=S)Nc1cccc(C)c1)c1cccc(N)c1` was tested, and the Potency was inconclusive: 25.1 µM [inhibitor, single point].
For `Cc1nc2ccn(Cc3cccs3)c(=O)c2cc1C(=O)NCc1ccc(Br)cc1`, the Potency was inconclusive: 31.6 µM [activator, single point].
For `Cc1ccc(OCc2ccc(C(=O)Nc3nc4ccccc4n3Cc3ccccc3)o2)c([N+](=O)[O-])c1`, the Potency was inconclusive: 5.01 µM [inhibitor, full curve, poor fit].
In the case of `O=C1c2ccccc2S(=O)(=O)N1CC(O)Cn1c2ccccc2c2ccccc21` (stereo unspecified), the Potency is reported as inconclusive: 25.1 µM [inhibitor, single point].
`Fc1ccc2nc(Nc3nc4c(s3)CCCC4)sc2c1` was tested, and the Potency was active: 31.6 µM.
For `CC(C)OC(=O)CSc1nc(-c2ccc(F)cc2)cc(C(F)(F)F)n1`, the Potency was inconclusive: 25.1 µM [inhibitor, single point].
`CN(C)CCNC(=O)c1ccc(-n2c(-c3ccccc3)cc3c2CCCCC3)cc1` was tested, and the Potency was inconclusive: 25.1 µM [inhibitor, single point].
With `CC1CCN(C(=O)CSc2nc3ccccc3c(=O)n2Cc2ccc3c(c2)OCO3)CC1` the max response, negative = inhibition was inactive: -12%.
For `Cc1nn2c(N3CCOCC3)c3c(nc2c1-c1ccccc1)CCCC3`, the Potency was inconclusive: 39.8 µM [activator, single point].
For `COc1cccc(CNc2nc3ccccc3c3nc(-c4cccc(C)c4)nn23)c1`, the max response, negative = inhibition was inactive: -14.8%.
With `O=C(NCCc1nc2ccccc2[nH]1)c1ccco1` the Potency was active: 12.6 µM.
With `CC(C)C[C@@H](CC(=O)N[C@@H](CCCN)CC(=O)N[C@@H]1CCCC[C@H]1C(=O)N[C@H](CC(=O)N[C@@H](CCC(=O)O)CC(=O)O)Cc1c[nH]c2ccccc12)NC(=O)[C@@H]1CCCC[C@H]1N` the Potency was inconclusive: 39.8 µM [activator, single point].

Source: PubChem BioAssay AID1476 (National Center for Advancing Translational Sciences (NCATS), 2009)
Also: nearly all actives have a fitted effect of over 40% in size.
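For max response, negative = inhibition in this document: plate controls were enzyme without inhibitor for no effect and buffer without enzyme for full effect.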
Potency is read from the fitted curve at half-maximal effect; tags tell the direction and shape of the fitted curve.
